Experimental data reported in PubChem BioAssay AID1477 (National Center for Advancing Translational Sciences (NCATS), 2009).
Hit rate of the full screen: of about 230,000 compounds, fewer than 10 were called active. Inconclusive means that the source gave no clear call. Such entries were picked first, then a sample of the others. Calls follow the shape of the dose curve; as a rule, active = well fitted curve in the direction sought with a large enough effect; inconclusive = small, poorly fitted or top-dose-only effect, or effect the other way, or another doubt; inactive = no such curve, though single readings can be large or run the other way. Potencies of inconclusive entries are left out as doubtful fits.

These compounds were tested against Runt-related transcription factor 1 (Homo sapiens) + Core-binding factor subunit beta (Homo sapiens) (UniProt Q01196+Q13951) (assay: qHTS Assay for Compounds Blocking the Interaction Between CBF-beta and RUNX1 for the Treatment of Acute Myeloid Leukemia). Details: AlphaScreen CBFb-His/RUNX1-biotin binding, biochemical; activity, negative = inhibition: at 59.8 µM (top of the series) unless noted.
How it was run: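 AlphaScreen proximity signal reports loss of binding between His-tagged CBF-beta and biotin-labelled RUNX1, each at 30 nM. Proteins are pre-associated for 20 minutes, compounds added for 15 minutes, then beads for 90 minutes, all at ambient temperature.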
For activity, negative = inhibition in this document: % of control where 0% means no effect.

SMILES | Potency | activity, negative = inhibition
Cc1ccc(NC(=O)C2CCN(S(=O)(=O)c3c(C)noc3/C=C/c3ccco3)CC2)nc1 | inconclusive [inhibitor, single point] | –
CCOc1ccc(N2CSC3=C(C#N)C(c4ccco4)CC(=O)N3C2)cc1 (stereo not drawn) | inconclusive [inhibitor, single point] | –
O=C(C1=C[C@@H](c2coc3ccccc3c2=O)C[C@@H](OCCCCO)O1)N1CCOCC1 | inconclusive [inhibitor, single point] | –
Cl/C=C/Cl | – | inactive: -2.62% [at 21.7 µM]
COc1ccccc1N1CCN(C(=O)CSc2nc(C)c(Cc3ccccc3)c(=O)[nH]2)CC1 | – | inactive: -6.51%
Cc1ccccc1NS(=O)(=O)c1cc(C(=O)Nc2cccc([N+](=O)[O-])c2)ccc1C | inconclusive [inhibitor, partial curve] | –
COCCN1C=C(C(=O)OC)C(c2cc(Br)c(OC)c(OC)c2)C(C(=O)OC)=C1 | inconclusive [activator, partial curve] | –
Cc1ccc2cc3c(NC(=O)C4CCCO4)nn(CC(C)C)c3nc2c1 (stereo not drawn) | inconclusive [activator, partial curve] | –
Cc1ccsc1/C=C/c1ccc2ccccc2n1 | inconclusive [activator, single point] | –
COc1ccc(CC(=O)N2CC3(C)CC2CC(C)(C)C3)cc1 (stereo not drawn) | – | inactive: 1.86%
O=C(CSc1ccc(-c2ccco2)nn1)NCc1ccc2c(c1)OCO2 | inconclusive [inhibitor, partial curve] | –
CCCNC(=O)Nc1ccsc1C(=O)OC | – | inactive: 0.0882%
CCOc1ccccc1NC(=O)C(OC(=O)c1ccc(CC)cc1)c1ccccc1 (stereo not drawn) | inconclusive [activator, partial curve] | –
Cc1nc(N)sc1-c1csc(N(C)c2ccc(O)cc2)n1 | inconclusive [inhibitor, single point] | –
CC12CCC(C(=O)N(CCCN3CCN(Cc4ccccc4)CC3)C1=O)C2(C)C (stereo not drawn) | – | inactive: -3.4%
O=C1c2ccccc2C(=O)c2c(NCCCN(CCO)CCO)cccc21 | inconclusive [inhibitor, single point] | –
CN(C)c1nc(N/N=C/c2ccccc2O)nc(Nc2ccc(F)cc2)n1 | inconclusive [inhibitor, partial curve] | –
CC(C)CCC(C(=O)O)C(C)CC(=O)NNC(=O)c1ccco1 (stereo not drawn) | inactive | –
COc1ccc2oc(=O)c(C(=O)Nc3cccc(C)c3)cc2c1 | – | inactive: 0.0998%
O=c1sc2ccccc2n1COc1ccc(Cl)cc1 | inconclusive [activator, single point] | –
COc1cccc(COC(=O)c2nn(-c3ccccc3)nc2N)c1 | inconclusive [activator, single point] | –
Cc1ccc(C(=O)N/N=C\c2ccc([N+](=O)[O-])o2)cn1 | inconclusive [inhibitor, single point] | –
CCOC(=O)c1ccc(NC(=O)c2nc[nH]c2C(=O)N[C@@H](CC(C)C)C(=O)OC(C)(C)C)cc1 | – | inactive: 21%
c1ccc(CN2C3=NCCN3c3ccccc32)cc1 | inconclusive [activator, single point] | –

SMILES | Potency | activity, negative = inhibition
Cc1cccc(NC(=O)CSc2nnc(-c3ccccc3C)o2)c1 | – | inactive: 11.2%
C=CC[C@@H]1C=C[C@H](O/N=C\[C@@H](C)[C@H](OCc2ccccc2)C(C)C)[C@H](CO)O1 | – | inactive: -10.8% [at 13.1 µM]
CC1CC(C)CN(C(=O)c2ccc3c(c2NCCO)C(=O)c2ccccc2C3=O)C1 (stereo not drawn) | inconclusive [inhibitor, partial curve] | –
CCOC(=O)c1ccc(NC(=S)Nc2cccc(C)n2)cc1 | inconclusive [activator, single point] | –
COc1ccc(/C=N/NC(=O)c2cccc(Br)c2)cc1COc1ccccn1 | – | inactive: -1.75%
Oc1ccc(Br)cc1/C=N/Nc1ncc(-c2ccccc2)cn1 | inconclusive [inhibitor, partial curve] | –
Cc1[nH]n(C(N)=S)c(=O)c1N=Nc1ccc2ccccc2c1 | inconclusive [inhibitor, single point] | –
O=C(NCc1ccco1)c1cc2ccc(O)cc2oc1=O | – | inactive: -13.9%
CN(C)c1ccc2c3c(cccc13)C(=O)N(c1ccccc1)C2=O | inconclusive [inhibitor, single point] | –
NC(=O)NNC1=Nc2cccc3cccc1c23 | – | inactive: -9.6%
CSSC | inconclusive [activator, partial curve, poor fit] | –
O=C(O)CC1NC(=S)N(c2ccccc2)C1=O (stereo not drawn) | – | inactive: 6.95%
CC1CCCCN1C(=O)/C(=C\c1ccccc1)c1ccccc1 (stereo not drawn) | – | inactive: 0.547%
O=C(c1cccnc1)C1Cc2ccccc2C1=O (stereo not drawn) | inconclusive [inhibitor, single point] | –
COc1ccc(C)cc1N=Nc1ccc(O)c2ncccc12 | inconclusive [inhibitor, partial curve] | –
Cc1ccc(/C=C/C(=O)N2CCc3ccccc32)o1 | inconclusive [inhibitor, single point] | –
N[C@@H](CCCCNC(=O)CCCC[C@@H]1SC[C@H]2NC(=O)N[C@H]12)C(=O)O | active: 0.398 µM | –
CC1(C)C(C=C(Cl)Cl)C1C(=O)OC(C#N)c1cccc(Oc2ccccc2)c1 (stereo not drawn) | inconclusive [activator, partial curve] | –
O=c1c2ccccc2nc(-c2ccco2)n1-c1ccc(Br)cc1 | – | inactive: 3.6%
CN(C)c1nc(SCc2ccccc2Cl)nc2c1CCCC2 | inconclusive [activator, single point] | –
CCCCOc1ccc(C(=O)CCN2CCOCC2)cc1 | – | inactive: 3.87%
CCOC(=O)c1sc(=S)n(CC)c1NC(=O)CC | inconclusive [inhibitor, single point] | –
Cc1ccc2nc(-c3ccc(O)cc3)c(Nc3ccc4c(c3)OCCO4)n2c1 | – | inactive: -22.3%
C=CCOC(=O)C(C#N)c1nc2ccccc2nc1N1CCN(c2ccccc2OC)CC1 (stereo not drawn) | inconclusive [inhibitor, partial curve] | –
